The whole screen tested about 150,000 compounds, of which about 190 (0.13%) were called active. Inconclusive means that the source gave no clear call. Such entries were picked first, then a sample of the others. Calls follow the shape of the dose curve; as a rule, active = well fitted inhibition curve with a large enough effect; inconclusive = small, poorly fitted or top-dose-only effect; inactive = flat fitted curve, though single readings scatter. Where the call is inconclusive, the potency comes from a doubtful curve fit. Bridge positions count the residues as written; N and C are the ends. Square brackets hold non-standard residues; d marks the D form. Peptide text beside a SMILES is read from it. * marks the point of attachment. ξ: configuration not given here. ξDab(CH2SO3H) = NC(CCNCS(=O)(=O)O)C(=O)O; Heptanoyl(6-Me) = CC(C)CCCCC(=O)*; Dab = NCC[CH](N)C(=O)O
What follows are compounds tested against Polyunsaturated fatty acid lipoxygenase ALOX12 (Homo sapiens) (UniProt P18054) (assay: qHTS Assay for Inhibitors of 12-hLO (12-human lipoxygenase)). Settings: purified 12-hLO, xylenol orange hydroperoxide absorbance; series mostly up to 57.1 µM; activity change, negative = inhibition: at the top concentration.
Method in brief: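 Hydroperoxide formation by human 12-lipoxygenase from 40 uM arachidonic acid was followed colorimetrically via ferric-xylenol orange complex, using the 573/405 nm absorbance ratio. Enzyme concentration was 150 nM, with 30 min reaction at room temperature.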
% is scaled to controls: 0 for no effect and ±100 for the full control effect; potency is read from the fitted curve at half-maximal effect; tags tell the direction and shape of the fitted curve.
Also: nearly all actives have a fitted effect of over 55% in size.

Sequence of UniProt P18054 (P18054 whole entry, looked up): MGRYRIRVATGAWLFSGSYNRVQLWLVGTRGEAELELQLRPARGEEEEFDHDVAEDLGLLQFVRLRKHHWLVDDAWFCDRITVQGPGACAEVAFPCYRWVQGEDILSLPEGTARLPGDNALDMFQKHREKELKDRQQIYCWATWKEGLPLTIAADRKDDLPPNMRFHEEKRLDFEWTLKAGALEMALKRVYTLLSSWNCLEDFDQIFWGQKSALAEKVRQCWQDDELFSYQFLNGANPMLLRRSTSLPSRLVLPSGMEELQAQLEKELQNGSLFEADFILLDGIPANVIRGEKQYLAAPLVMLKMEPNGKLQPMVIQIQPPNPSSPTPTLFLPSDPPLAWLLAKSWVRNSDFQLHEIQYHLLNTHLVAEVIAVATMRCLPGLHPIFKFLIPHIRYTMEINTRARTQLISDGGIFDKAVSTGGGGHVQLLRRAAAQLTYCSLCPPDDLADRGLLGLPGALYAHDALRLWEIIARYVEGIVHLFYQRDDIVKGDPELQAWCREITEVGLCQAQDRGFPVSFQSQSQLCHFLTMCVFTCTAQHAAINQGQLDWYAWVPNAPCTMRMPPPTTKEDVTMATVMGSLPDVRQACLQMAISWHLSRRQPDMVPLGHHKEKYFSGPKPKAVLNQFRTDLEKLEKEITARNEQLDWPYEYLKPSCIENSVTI

Potency, inactive:
COC(=O)C1C(O)CC[C@@H]2CN3CCc4c([nH]c5ccccc45)C3C[C@@H]12 (some centres undefined)

Potency, inconclusive:
N[C@@H](Cc1cc(I)c(Oc2ccc(O)c(I)c2)c(I)c1)C(=O)O 11.2 µM [inhibitor, partial curve], Cc1ccc(NC2=Nc3ccccc3N3C2=Nc2c(c(C)nn2-c2ccccc2)C3c2ccc(O)c(O)c2)cc1 (centres undefined) 2.82 µM [inhibitor, full curve], O=C(N/N=C/c1cccc(F)c1)c1cc(-c2ccco2)nc2ccccc12 17.8 µM [inhibitor, partial curve], Cc1cc(C2C(=O)CC(=O)CC2c2ccccc2)on1 (centres undefined) 7.94 µM [inhibitor, partial curve], NC(=S)Nc1ccc(Oc2ccc(NC(N)=S)cc2)cc1 31.6 µM [inhibitor, partial curve], Cc1cccc(NC(=S)Nc2ccc(Oc3ccccc3)cc2)n1 3.98 µM [inhibitor, partial curve], Cc1ccc(NC(=O)C2CCCN(S(=O)(=O)c3c(C)noc3/C=C/N(C)C)C2)cc1F (centres undefined) 17.8 µM [inhibitor, partial curve], Cc1cc2nc(CCN(C(=S)NCC(C)C)C3CCCC3)[nH]c2cc1C 31.6 µM [inhibitor, single point], CC(C)CNC(=S)NC(=O)c1ccc(F)cc1 14.1 µM [inhibitor, partial curve], CCCC(C)C(=O)Nc1nc(C)c(-c2csc(Nc3cc(OC)ccc3OC)n2)s1 (centres undefined) 20 µM [inhibitor, partial curve], COc1ccc(C(=O)NNc2ccccc2)cc1OC 0.224 µM [inhibitor, full curve], Cc1ccc(S(=O)(=O)/C(C#N)=C/c2c(N3CCC(C(N)=O)CC3)nc3ccccn3c2=O)cc1 39.8 µM [inhibitor, single point], O=c1onc2cnc3ccccc3n12 8.91 µM [inhibitor, single point], COC(=O)c1ccccc1NC(=O)N1CCCC1 35.5 µM [inhibitor, single point], Cc1ccc(-c2nc3ccccc3[nH]2)cc1NC(=O)/C=C/c1ccco1 20 µM [inhibitor, single point], S=C(NCc1ccc2[nH]c3c(c2c1)CCCC3)Nc1ccccc1 25.1 µM [inhibitor, single point], COc1cccc(Nc2nc(NCC3CCCO3)c3ccccc3n2)c1 (centres undefined) 25.1 µM [inhibitor, partial curve], COc1ccc(C2C(C(C)=O)=C(C)N=c3s/c(=C\c4ccco4)c(=O)n32)c(OC)c1 (centres undefined) 22.4 µM [inhibitor, single point], Cc1sc(-n2c(C)cc(C=O)c2C)c(C(=O)O)c1C 39.8 µM [inhibitor, single point], Cc1ccc(S(=O)(=O)Oc2ccc(N=Nc3ccc(-c4ccc(N=Nc5c(O)ccc6cc(S(=O)(=O)O)cc(S(=O)(=O)O)c56)c(C)c4)cc3C)cc2)cc1 14.1 µM [inhibitor, partial curve], CS(=O)(=O)c1cc([N+](=O)[O-])c(Sc2nc3ccccc3[nH]2)c([N+](=O)[O-])c1 22.4 µM [inhibitor, single point], O=c1c2c3nc4ccccc4nc3n(Cc3ccccc3)c2ncn1Cc1ccco1 14.1 µM [inhibitor, partial curve], CC(C)=NNc1nc(-c2ccccc2)cs1 39.8 µM [inhibitor, single point], NNC(=O)CNC(c1ccccc1)c1cc(Br)ccc1NC(=O)CCN1CCOCC1 (centres undefined) 39.8 µM [inhibitor, single point], CN1c2ccccc2C(C)(C)C12C=Nc1c(ccc3ccccc13)O2 (centres undefined) 17.8 µM [inhibitor, partial curve], N#C/C(=C/Nc1ccccc1)c1ccsc1 28.2 µM [inhibitor, single point], c1cc(CNc2ccc(N3CCOCC3)cc2)ccn1 39.8 µM [inhibitor, single point], Cc1nn(-c2ccccc2)c(C)c1/C=N/Nc1nc2ccccc2[nH]1 39.8 µM [inhibitor, single point], CC1=NN(c2ccc(Cl)cc2)C(=O)C1C(c1cccc(O)c1)c1c(C)[nH]n(-c2ccc(Cl)cc2)c1=O (centres undefined) 8.91 µM [inhibitor, full curve], Cc1ccc(S(=O)(=O)/C(C#N)=C/c2c(N3CCC(C(N)=O)CC3)nc3c(C)cccn3c2=O)cc1 7.08 µM [inhibitor, full curve, poor fit], CCC(C)C1NC(=O)C(CCNCS(=O)(=O)O)NC(=O)C(NC(=O)C(CCNCS(=O)(=O)O)NC(=O)C(NC(=O)C(CCNCS(=O)(=O)O)NC(=O)CCCCC(C)C)C(C)O)CCNC(=O)C(C(C)O)NC(=O)C(CCNCS(=O)(=O)O)NC(=O)C(CCNCS(=O)(=O)O)NC(=O)C(C(C)CC)NC1=O (centres undefined) ({Heptanoyl(6-Me)}-[ξDab(CH2SO3H)]T[ξDab(CH2SO3H)][Dab][ξDab(CH2SO3H)]II[ξDab(CH2SO3H)][ξDab(CH2SO3H)]T; lactam 4-C; configuration not given here) 3.16 µM [inhibitor, full curve], Cc1ccc(C(=O)c2c(C)oc3c2C(=O)C(=O)c2ccccc2-3)cc1 25.1 µM [inhibitor, single point], CCOC(=O)C1=C(C)NC(SCc2cc(=O)[nH][nH]2)=C(C#N)C1c1cccs1 (centres undefined) 25.1 µM [inhibitor, partial curve], O=C(CCCn1c(SCC(=O)c2ccc(O)c(O)c2)nc2ccccc2c1=O)NCC1CCCO1 (centres undefined) 2.24 µM [inhibitor, partial curve], Clc1cccc2c1Sc1ccccc1CC2N1CCNCC1 (centres undefined) 39.8 µM [inhibitor, single point], CC/C(=N\NC(=S)Nc1ccc(OC)cc1)c1ccc(OC(F)F)cc1 25.1 µM [inhibitor, single point], Cc1ccc(N2C(=O)CC(N(O)C3CC(=O)N(c4ccc(C)cc4)C3=O)C2=O)cc1 (centres undefined) 14.1 µM [inhibitor, partial curve], O=C(CCc1ccccc1)NC(=S)Nc1cc(C(F)(F)F)ccc1N1CCOCC1 35.5 µM [inhibitor, single point], COc1ccc(OC)c(/C=N/c2oc(-c3ccco3)c(-c3ccco3)c2C#N)c1 28.2 µM [inhibitor, single point], C/C(=N\NC(=S)Nc1cccc(C)c1)c1ccccc1 8.91 µM [inhibitor, partial curve], COC(=O)C1=C(C)NC(=S)NC1c1ccc(-c2cccc(Cl)c2)o1 (centres undefined) 25.1 µM [inhibitor, partial curve], CNC(=O)C1C(=S)NC(N)=C(C#N)C1c1ccccc1 (centres undefined) 17.8 µM [inhibitor, single point], CC1C/C(=N\NC(=S)NCc2ccccc2)CC(C)(C)C1 (centres undefined) 14.1 µM [inhibitor, partial curve], CCCC(=O)Nc1nc(C)c(-c2csc(Nc3ccc(Cl)cc3)n2)s1 25.1 µM [inhibitor, single point], Cc1cc(C)cc(NC(=S)NCCc2c[nH]c3ccccc23)c1 35.5 µM [inhibitor, single point], COCC(=O)Nc1sc2c(c1C(=O)OC)CCC(C)C2 (centres undefined) 28.2 µM [inhibitor, single point]

Activity change, negative = inhibition, inactive:
Cc1ccc(C(=O)CSc2nnc3c4ccccc4nc(C(C)(C)C)n23)cc1 1.46%, O=C1CC(N2CCN(c3cccc(C(F)(F)F)c3)CC2)C(=O)N1c1ccccc1F (centres undefined) -9.57%, N#C/C(=C\c1ccc([N+](=O)[O-])o1)c1nc2ccccc2[nH]1 1.91%, CN(C)c1oc(-c2ccccc2Cl)nc1P(=O)(c1ccccc1)c1ccccc1 -0.556%, COc1ccccc1OCC(=O)NC1CCCCCC1 -2.16%, O=C1c2ccccc2N[C@H](c2cc(Cl)cc(Cl)c2O)N1CCc1ccccn1 -1.72% [at 11.4 µM], CC1CCN(C(=O)CCCOc2cc(=O)n(C)c3ccccc23)CC1 5.71%, CCCN(CCC)c1ccc(CC(=O)NC(C)Cc2ccccc2)cc1 (centres undefined) -5.37%, CCOC(=O)c1c(NC(=O)CN2C(=O)NC3(CCC(C)CC3)C2=O)sc(C)c1-c1ccc(C)cc1 (centres undefined) 5.45%, Cc1ccc(C(=O)CC2(O)C(=O)N(C)c3ccccc32)o1 (centres undefined) 5.73%, O=c1cc(-c2ccccc2F)oc2ccccc12 -0.0954%, CC(C)NC(=O)Cn1c(SCC(=O)c2ccc(F)cc2)nc2ccccc21 2.04%, Cc1ccc(NC(=O)c2sccc2SCc2cccc(C(F)(F)F)c2)cc1 -9.48%, N#CCCCSC1=C(C#N)C(c2ccccc2Cl)CC(=O)N1 (centres undefined) -2.2%, CCc1cccc(CC)c1NC(=O)COC(=O)/C(C#N)=C/c1ccc(OC)cc1 -3.32%, COc1cccc(-c2nn3c(-c4ccccn4)nnc3s2)c1 0.379%, CCOc1ncccc1C(=O)OCc1ccccc1 5.04%

Source: PubChem BioAssay AID1452 (National Center for Advancing Translational Sciences (NCATS), 2008)
